Measurements: the supplement of paper PMC3334620
Whole data set: some 33,000 sequences, median “E-score (-0.5 to 0.5)” near -0.016, cut for the highest 2% near 0.32. This is one part of the list.

The sequences below were run against T1, Stp1 (UniProt B3LFK1) (assay: PBM E-score (8-mer binding enrichment) (E-score (-0.5 to 0.5)); higher = stronger / more preferred TF binding; most listed sequences are background and not binding sites). Details: protein concentration: 200 nM; construct: GST-full length.
T1 sequence: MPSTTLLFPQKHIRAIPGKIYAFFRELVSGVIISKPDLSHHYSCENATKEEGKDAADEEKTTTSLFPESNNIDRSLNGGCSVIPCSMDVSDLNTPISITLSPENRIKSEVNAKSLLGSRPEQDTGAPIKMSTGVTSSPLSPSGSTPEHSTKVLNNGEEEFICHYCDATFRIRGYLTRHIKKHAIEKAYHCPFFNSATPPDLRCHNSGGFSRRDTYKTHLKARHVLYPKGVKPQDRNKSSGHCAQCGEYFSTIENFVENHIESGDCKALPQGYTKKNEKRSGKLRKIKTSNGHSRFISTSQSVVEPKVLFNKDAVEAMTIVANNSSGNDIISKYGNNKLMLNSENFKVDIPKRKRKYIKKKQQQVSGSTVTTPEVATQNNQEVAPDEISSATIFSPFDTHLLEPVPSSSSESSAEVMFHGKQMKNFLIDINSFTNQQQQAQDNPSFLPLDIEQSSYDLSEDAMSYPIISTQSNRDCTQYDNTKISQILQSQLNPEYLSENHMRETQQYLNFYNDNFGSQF
How it was run: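 Yeast transcription factors, full-length or as DNA-binding domains, were expressed with a GST tag using PURExpress in vitro transcription/translation. At about 100-200 nM they were applied to universal all-10-mer Agilent arrays, double-stranded by primer extension on fresh or once-stripped slides. Fluorescent anti-GST detected bound protein, and masliner normalised the scans. E-scores for ungapped eight-base words, pooled with reverse complements, came from the Universal PBM Analysis Suite.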

Sequence | PBM E-score
AGAACCCC | -0.341
AGAGAAAC | -0.00716
CCAATGCA | -0.144
GAAAGATC | 0.0377
GGGGGGAA | -0.343
CTGTATGC | -0.0205
CAATAGGC | 0.218
CAATGAGG | -0.0804
AGTGCTAT | -0.287
GAGTAACC | -0.00115
GGAAGGTA | -0.0503
GAGGGGCA | -0.00367
CACGTCTC | 0.0792
ATAAACCG | 0.0403
CTAATGCA | 0.195
CGTCGGAG | -0.179
GGGCGCCC | 0.255
GACGCTCC | -0.189
CATGCTAA | -0.112
GAACGTGA | -0.101
GCCTCGTA | 0.346
ACCCTTTC | -0.15
ACAGACGC | -0.0122
CACCTGCA | -0.138
GTAGCCGA | -0.238

Sequence | PBM E-score
CAACGCAG | -0.23
ATGCTGAG | -0.302
GAATAACC | -0.0652
AACCGACC | -0.117
ACACACGG | 0.356
GCGCACCC | -0.0647
GCCTGAAA | 0.159
TAAGACGA | -0.0174
ATGAGAAA | 0.134
AGCGATGA | 0.0954
CAGGTTTA | -0.0589
ATGAGCAT | 0.0935
CCGCCTGA | 0.114
AATAAGCC | 0.0484
CGCAGTTA | 0.0737
ACTGGTCT | -0.231
CGGGACCG | -0.0461
GTATCGCA | -0.0303
GAATCACC | -0.0222
CCGCTGAC | -0.0983
AGTGAAAA | 0.124
ACCTAGGT | -0.275
CCCGCACG | 0.222
ACTAGACT | -0.393
AGTGTCAA | 0.0189

Sequence | PBM E-score
ACGGTGCC | 0.396
ACAAAGTC | 0.00883
CAGATATC | -0.089
ACGTAGTG | -0.155
AGACGCCT | 0.191
GATTACCA | -0.0233
AAAGTAGT | 0.0721
CATTAGGG | -0.0698
CAGAGTGG | 0.0287
AGAAACAG | 0.0862
ATCCCAAA | 0.0422
TCAATCGA | 0.106
CCTACTAC | 0.036
CCAGGCCC | -0.286
ATTGCCCC | 0.00493
GCCGATTA | 0.13
GCGTCAGA | -0.0729
AACTACTA | 0.177
ACATCACA | 0.0308
GGAACCCC | -0.312
CTGACAAG | -0.0431
GCTTTACC | 0.0342
CCTCAAAA | -0.115
CTGTCAAG | 0.154
CCTCGTAC | 0.0933

Sequence | PBM E-score
AACTTTTA | 0.268
CCTAGGTC | -0.211
ATGAGTAC | 0.0493
GGCCTACC | -0.185
GCCGTGCA | 0.478
TAACTGGA | -0.038
ATCAAAAG | 0.173
AGGCCAGG | -0.194
AAGACGCC | 0.321
CTAATATA | 0.174
CCCAAAGG | -0.0153
CTCACATC | 0.00305
CGTAAGTA | -0.0266
AGATAAGC | -0.029
AGTAAGCC | -0.163
CCAATTCG | 0.142
ATTTCGCA | 0.111
AAGGTCTG | -0.133
CCTCTTAA | 0.148
CATTGCTA | 0.111
CCACTACA | -0.106
AACTCTAC | -0.212
ACAAGTAG | -0.337
AGGGAGAA | -0.178
CAACCAAA | 0.113

Sequence | PBM E-score
ACTCACGC | 0.205
GGTCATCA | -0.0874
CATCGTAA | 0.171
ACTCTATA | 0.0603
AAGAAAGT | 0.0242
AGGTGTCC | -0.0375
GATAATGA | 0.0865
GACCCATA | -0.215
AACCGTTA | -0.199
GTGCAATA | -0.0679
AAATGCGC | 0.148
AGACAATG | -0.0306
AACCGCCG | 0.324
AACAGGAC | -0.103
TCCTTTCA | 0.132
AGTAAAGC | 0.21
CATATATA | 0.256
GAGCTACA | -0.237
AGGGACCC | -0.293
CGCCGTTC | 0.464
CCTGAGAC | -0.248
ACGATCGG | -0.106
AGACCAGC | -0.25
ACTCCGTA | 0.15
CGGACGAC | -0.0612

Sequence | PBM E-score
CAAGATAA | 0.195
ATAATGGG | -0.029
ATATGTAA | 0.12
TATCAGCA | -0.0134
ACCCAAGG | 0.0251
TAACGGGA | -0.127
CAAGATGA | -0.0617
ATCGACTA | -0.126
CAAGTTCG | -0.119
ACGGAACT | 0.131
ATCGAAAT | 0.0933
AGAGATCA | -0.173
CTGTAATC | -0.169
CCAAACCG | 0.014
GTCAAGAC | -0.195
ACCTAAAG | 0.0737
AGACGTTC | -0.0284
ATGCGCCA | 0.0976
ATTCTGCA | 0.133
ATCTGGGC | -0.00136
GCTCCGAC | -0.314
AGCGCGAT | 0.195
GCAGTCCA | 0.121
ATTGTGGG | -0.231
ACGGTTCC | 0.0184

Sequence | PBM E-score
CTTATCGC | 0.0251
TGGCACCA | 0.176
GACCGCAC | -0.177
GAAATATA | 0.241
CAAGAGAG | -0.0299
CGCCTGTC | -0.0688
CAGTCAGG | -0.188
CTACTGCA | -0.146
ATCACTGA | -0.0416
ATCGTCAG | -0.191
ACGAAATA | 0.181
GCCGTACC | 0.46
CAGGCCGG | -0.233
AACCACAG | -0.23
ACCATGCC | 0.199
GTCGAGGA | -0.285
AAGGCGTC | 0.296
TAGATACA | 0.0954
CCCTCATC | -0.344
CATGCGAA | 0.111
CTGTAAAG | 0.0921
CCGTGGAG | 0.205
CCTGCCCA | -0.259
CAGTCCGA | -0.112
AATAGACG | 0.144

Sequence | PBM E-score
ATTGTGAG | -0.00101
ACGCCAAT | 0.072
CCTCGCAG | -0.0486
ACGTCATA | 0.0696
CCTATAGC | -0.147
AGCATACG | -0.0138
ATCCCACG | -0.209
CTTAGGTC | -0.175
AACTGCCA | 0.0646
AGCGCATA | -0.099
CCTTCGGA | -0.147
CGCTCAGA | -0.108
CTCACTAA | 0.0486
ACCATCAA | -0.149
CCGTCAGC | -0.133
GCCAGATA | 0.0195
CTAATATC | -0.0373
AACGGTCA | 0.0522
GCAGGGCC | 0.00028
CATGGGAC | -0.173
CGACTTTC | -0.0611
GCACAGTA | 0.186
AATACCGG | -0.2
CGCAAGAA | 0.144
CCGAGACG | -0.0759

Sequence | PBM E-score
AACTGCCG | 0.329
GCAAGAAA | 0.0932
ATCGTATC | -0.166
TAAAGCTA | 0.0639
AGTGCCCA | 0.0772
CGCCGCTA | 0.299
AGTCCTTG | -0.0837
GGACGGAC | -0.0965
GATGGCAA | 0.166
AACTTACG | 0.154
CAGGAAAC | 0.0237
GTACTATA | 0.17
CCGAGACC | -0.127
TTAATCAA | 0.171
GAACCGAA | 0.152
GGGAAACC | -0.108
AAATCCGG | -0.0958
CAAAAGCA | -0.034
AGCGAAGC | 0.0148
